Source: the supplement of paper PMC4967469
By IC50 is meant the dose at which the fit gives 50% viability; a limit (>, <) means that the fit lies beyond the doses tested. For AUC the same curve is integrated over the 256-fold range of doses and scaled to a fraction: 1 means no effect, lower means more sensitive. For some of these results: The top dose, if marked as inferred, comes from the curve model; the source does not state it. For some of these results: Drugs with an entry number were screened twice under separate entries, and the two screens often disagree.

How the values were obtained:
Test in all cases: Viability of human cancer cell lines after 72 h of drug (GDSC screen)
Nilotinib = compound: Cc1cn(-c2cc(NC(=O)c3ccc(C)c(Nc4nccc(-c5cccnc5)n4)c3)cc(C(F)(F)F)c2)cn1 [Nilotinib]; settings: top dose 2 µM
Experimental: (§1)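 Human cancer cell lines in 384-well plates, medium with 10% serum, drug for 72 h over a 256-fold dose range (nine 2-fold or five 4-fold steps up to the top dose). Adherent lines were fixed and stained with the nucleic acid dye Syto60, suspension lines read with resazurin; signal relative to control wells, capped at 0 and 100%. One two-parameter sigmoid per drug and line, fitted in a mixed model over all curves with the slope shared within a line.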

T0901317 = compound: O=S(=O)(c1ccccc1)N(CC(F)(F)F)c1ccc(C(O)(C(F)(F)F)C(F)(F)F)cc1 [T0901317]; settings: top dose 10.24 µM; top dose inferred
Experimental: as §1

Bicalutamide = compound: CC(O)(CS(=O)(=O)c1ccc(F)cc1)C(=O)Nc1ccc(C#N)c(C(F)(F)F)c1 [Bicalutamide]; settings: top dose inferred
Experimental: as §1

AUY922 = compound: CCNC(=O)c1noc(-c2cc(C(C)C)c(O)cc2O)c1-c1ccc(CN2CCOCC2)cc1 [AUY922]; settings: top dose 0.256 µM; top dose inferred
Experimental: as §1

LFM-A13 = compound: C/C(O)=C(\C#N)C(=O)Nc1cc(Br)ccc1Br [LFM-A13]; settings: top dose 16 µM; top dose inferred
Experimental: as §1

TW-37 = compound: CC(C)c1ccccc1Cc1cc(C(=O)Nc2ccc(S(=O)(=O)c3ccccc3C(C)(C)C)cc2)c(O)c(O)c1O [TW-37]; settings: top dose 5 µM
Experimental: as §1

KIN001-270 = compound: Cc1ccc(Nc2cc(-c3cccc(N4C(=O)c5ccccc5C4=O)c3)ncn2)cc1NS(C)(=O)=O [KIN001-270]; settings: top dose 20 µM; top dose inferred
Experimental: as §1

MP470 = compound: S=C(NCc1ccc2c(c1)OCO2)N1CCN(c2ncnc3c2oc2ccccc23)CC1 [MP470]; settings: top dose 20 µM; top dose inferred
Experimental: as §1

Gemcitabine = compound: Nc1ccn([C@@H]2O[C@H](CO)[C@@H](O)C2(F)F)c(=O)n1 [Gemcitabine]; settings: top dose 1.024 µM
Experimental: as §1

[1] = top dose 1.024 µM, screen: GDSC drug entry 150
[2] = top dose 10 µM, screen: GDSC drug entry 1502

Cell Line | AUC (Nilotinib) | IC50 (Nilotinib) | AUC (T0901317) | IC50 (T0901317) | AUC (Bicalutamide; [1]) | IC50 (Bicalutamide; [1]) | AUC (Bicalutamide; [2]) | IC50 (Bicalutamide; [2]) | AUC (AUY922) | IC50 (AUY922) | AUC (LFM-A13) | IC50 (LFM-A13) | AUC (TW-37) | IC50 (TW-37) | AUC (KIN001-270) | IC50 (KIN001-270) | AUC (MP470) | IC50 (MP470) | AUC (Gemcitabine) | IC50 (Gemcitabine)
KON (head and neck, adherent) | 0.987 | > 2 µM | 0.977 | > 10.2 µM | 0.986 | > 1.02 µM | 0.968 | > 10 µM | 0.408 | 0.009 µM | 0.97 | > 16 µM | 0.447 | 0.225 µM | 0.98 | > 20 µM | 0.953 | > 20 µM | 0.288 | 0.0164 µM
HCC1428 (breast, adherent) | 0.988 | > 2 µM | 0.982 | > 10.2 µM | 0.987 | > 1.02 µM | 0.986 | > 10 µM | 0.819 | 0.164 µM | 0.941 | > 16 µM | 0.546 | 0.423 µM | 0.988 | > 20 µM | 0.941 | > 20 µM | 0.981 | > 1.02 µM
H2369 (mesothelioma, adherent) | 0.981 | > 2 µM | 0.981 | > 10.2 µM | 0.987 | > 1.02 µM | 0.981 | > 10 µM | 0.468 | 0.0131 µM | 0.961 | > 16 µM | 0.504 | 0.321 µM | 0.978 | > 20 µM | 0.875 | > 20 µM | 0.634 | 0.152 µM
COLO-678 (large intestine, semi-adherent) | 0.981 | > 2 µM | 0.982 | > 10.2 µM | 0.984 | > 1.02 µM | 0.98 | > 10 µM | 0.802 | 0.171 µM | 0.969 | > 16 µM | 0.791 | 3.01 µM | 0.985 | > 20 µM | 0.985 | > 20 µM | 0.955 | > 1.02 µM
PE/CA-PJ15 (head and neck, adherent) | 0.972 | > 2 µM | 0.97 | > 10.2 µM | 0.985 | > 1.02 µM | 0.907 | > 10 µM | 0.786 | 0.12 µM | 0.982 | > 16 µM | 0.519 | 0.353 µM | 0.97 | > 20 µM | 0.945 | > 20 µM | 0.541 | 0.0837 µM
CAL-39 (cervix, adherent) | 0.977 | > 2 µM | 0.985 | > 10.2 µM | 0.984 | > 1.02 µM | 0.983 | > 10 µM | 0.426 | 0.00998 µM | 0.984 | > 16 µM | 0.539 | 0.401 µM | 0.975 | > 20 µM | 0.964 | > 20 µM | 0.957 | > 1.02 µM
NCI-H28 (mesothelioma, adherent) | 0.956 | > 2 µM | 0.973 | > 10.2 µM | 0.981 | > 1.02 µM | – | – | 0.838 | > 0.256 µM | 0.977 | > 16 µM | 0.528 | 0.382 µM | 0.98 | > 20 µM | 0.953 | > 20 µM | 0.71 | 0.306 µM
HCC1419 (breast, adherent) | 0.953 | > 2 µM | 0.981 | > 10.2 µM | 0.977 | > 1.02 µM | 0.965 | > 10 µM | 0.686 | 0.0666 µM | 0.947 | > 16 µM | 0.634 | 0.856 µM | 0.971 | > 20 µM | 0.848 | > 20 µM | 0.96 | > 1.02 µM
LNZTA3WT4 (glioma, adherent) | 0.988 | > 2 µM | 0.971 | > 10.2 µM | 0.989 | > 1.02 µM | 0.983 | > 10 µM | 0.695 | 0.0556 µM | 0.976 | > 16 µM | 0.464 | 0.25 µM | 0.97 | > 20 µM | 0.891 | > 20 µM | 0.369 | 0.028 µM
Hs683 (glioma, adherent) | 0.98 | > 2 µM | 0.972 | > 10.2 µM | 0.981 | > 1.02 µM | 0.984 | > 10 µM | 0.557 | 0.023 µM | 0.967 | > 16 µM | 0.589 | 0.55 µM | 0.977 | > 20 µM | 0.858 | 16.7 µM | 0.438 | 0.0431 µM
HCC1500 (breast, adherent) | 0.977 | > 2 µM | 0.965 | > 10.2 µM | 0.987 | > 1.02 µM | 0.978 | > 10 µM | 0.865 | 0.241 µM | 0.986 | > 16 µM | 0.876 | > 5 µM | 0.972 | > 20 µM | 0.622 | 2.74 µM | 0.872 | > 1.02 µM
MFE-280 (endometrium, adherent) | 0.982 | > 2 µM | 0.978 | > 10.2 µM | 0.98 | > 1.02 µM | – | – | 0.888 | > 0.256 µM | 0.972 | > 16 µM | 0.923 | > 5 µM | 0.931 | > 20 µM | 0.92 | > 20 µM | 0.913 | > 1.02 µM
EBC-1 (lung squamous cell carcinoma, adherent) | 0.978 | > 2 µM | 0.969 | > 10.2 µM | 0.981 | > 1.02 µM | 0.896 | > 10 µM | 0.534 | 0.0201 µM | 0.974 | > 16 µM | 0.372 | 0.132 µM | 0.954 | > 20 µM | 0.92 | > 20 µM | 0.12 | < 0.004 µM
